Assay results taken from PMC9911399, “Two distinct binding modes provide the RNA-binding protein RbFox with extraordinary sequence specificity”.
Residue numbers refer to the chain shown, from its start. Some of the results follow.

T1: RBFOX1 RRM (Homo sapiens, UniProt Q9NWB1 109-208)
T1 sequence: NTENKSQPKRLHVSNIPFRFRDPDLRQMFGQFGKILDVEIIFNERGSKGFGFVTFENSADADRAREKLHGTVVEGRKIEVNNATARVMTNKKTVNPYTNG

B1: AGAGUCU (DNA:RNA)
RNA: GGGAGACCGGAAUUCAGAUUGUCCAGAGUCUUUAAAUCCCGUCGUAGCCACCA
DNA 1: CAATCTGAATTCCGGTCTCCC
DNA 2: TGGTGGCTACGACGGGATT
B2: GCGAAGU (DNA:RNA)
RNA: B1 RNA with A25G, G26C, A27G, G28A, U29A, C30G
DNA 1: CAATCTGAATTCCGGTCTCCC
DNA 2: TGGTGGCTACGACGGGATT
B3: UAAAAUC (DNA:RNA)
RNA: B1 RNA with A25U, G26A, G28A, U29A, C30U, U31C
DNA 1: CAATCTGAATTCCGGTCTCCC
DNA 2: TGGTGGCTACGACGGGATT
B4: GUUACUU (DNA:RNA)
RNA: B1 RNA with A25G, G26U, A27U, G28A, U29C, C30U
DNA 1: CAATCTGAATTCCGGTCTCCC
DNA 2: TGGTGGCTACGACGGGATT
B5: AAUGGGU (DNA:RNA)
RNA: B1 RNA with G26A, A27U, U29G, C30G
DNA 1: CAATCTGAATTCCGGTCTCCC
DNA 2: TGGTGGCTACGACGGGATT
B6: CCAUCCU (DNA:RNA)
RNA: B1 RNA with A25C, G26C, G28U, U29C
DNA 1: CAATCTGAATTCCGGTCTCCC
DNA 2: TGGTGGCTACGACGGGATT
B7: AACUCAA (DNA:RNA)
RNA: B1 RNA with G26A, A27C, G28U, U29C, C30A, U31A
DNA 1: CAATCTGAATTCCGGTCTCCC
DNA 2: TGGTGGCTACGACGGGATT
B8: UUUAUUA (DNA:RNA)
RNA: B1 RNA with A25U, G26U, A27U, G28A, C30U, U31A
DNA 1: CAATCTGAATTCCGGTCTCCC
DNA 2: TGGTGGCTACGACGGGATT
B9: AGCAUGA (DNA:RNA)
RNA: B1 RNA with A27C, G28A, C30G, U31A
DNA 1: CAATCTGAATTCCGGTCTCCC
DNA 2: TGGTGGCTACGACGGGATT
B10: CAUUCUU (DNA:RNA)
RNA: B1 RNA with A25C, G26A, A27U, G28U, U29C, C30U
DNA 1: CAATCTGAATTCCGGTCTCCC
DNA 2: TGGTGGCTACGACGGGATT
B11: AAACGAC (DNA:RNA)
RNA: B1 RNA with G26A, G28C, U29G, C30A, U31C
DNA 1: CAATCTGAATTCCGGTCTCCC
DNA 2: TGGTGGCTACGACGGGATT
B12: AAAUUAG (DNA:RNA)
RNA: B1 RNA with G26A, G28U, C30A, U31G
DNA 1: CAATCTGAATTCCGGTCTCCC
DNA 2: TGGTGGCTACGACGGGATT
B13: CUUGAGC (DNA:RNA)
RNA: B1 RNA with A25C, G26U, A27U, U29A, C30G, U31C
DNA 1: CAATCTGAATTCCGGTCTCCC
DNA 2: TGGTGGCTACGACGGGATT
B14: UCAAACA (DNA:RNA)
RNA: B1 RNA with A25U, G26C, G28A, U29A, U31A
DNA 1: CAATCTGAATTCCGGTCTCCC
DNA 2: TGGTGGCTACGACGGGATT
B15: UAUACAU (DNA:RNA)
RNA: B1 RNA with A25U, G26A, A27U, G28A, U29C, C30A
DNA 1: CAATCTGAATTCCGGTCTCCC
DNA 2: TGGTGGCTACGACGGGATT
B16: CAAUCAC (DNA:RNA)
RNA: B1 RNA with A25C, G26A, G28U, U29C, C30A, U31C
DNA 1: CAATCTGAATTCCGGTCTCCC
DNA 2: TGGTGGCTACGACGGGATT
B17: GUCAAAU (DNA:RNA)
RNA: B1 RNA with A25G, G26U, A27C, G28A, U29A, C30A
DNA 1: CAATCTGAATTCCGGTCTCCC
DNA 2: TGGTGGCTACGACGGGATT
B18: CAUCAGC (DNA:RNA)
RNA: GGGAGACCGGAAUUCAGAUUGUCCCAUCAGCUUAAAUCCCGUCGUAGCCACCA
DNA 1: CAATCTGAATTCCGGTCTCCC
DNA 2: TGGTGGCTACGACGGGATT
B19: CGGCAGC (DNA:RNA)
RNA: B18 RNA with A26G, U27G
DNA 1: CAATCTGAATTCCGGTCTCCC
DNA 2: TGGTGGCTACGACGGGATT
B20: UGCCUUG (DNA:RNA)
RNA: B1 RNA with A25U, A27C, G28C, C30U, U31G
DNA 1: CAATCTGAATTCCGGTCTCCC
DNA 2: TGGTGGCTACGACGGGATT
B21: UAUCUAG (DNA:RNA)
RNA: B18 RNA with C25U, A29U, G30A, C31G
DNA 1: CAATCTGAATTCCGGTCTCCC
DNA 2: TGGTGGCTACGACGGGATT
B22: UCGUUCU (DNA:RNA)
RNA: B1 RNA with A25U, G26C, A27G, G28U
DNA 1: CAATCTGAATTCCGGTCTCCC
DNA 2: TGGTGGCTACGACGGGATT
B23: UAGCUAA (DNA:RNA)
RNA: B18 RNA with C25U, U27G, A29U, G30A, C31A
DNA 1: CAATCTGAATTCCGGTCTCCC
DNA 2: TGGTGGCTACGACGGGATT
B24: UAGAGAC (DNA:RNA)
RNA: B18 RNA with C25U, U27G, C28A, A29G, G30A
DNA 1: CAATCTGAATTCCGGTCTCCC
DNA 2: TGGTGGCTACGACGGGATT
B25: UCCACUA (DNA:RNA)
RNA: GGGAGACCGGAAUUCAGAUUGUCCUCCACUAUUAAAUCCCGUCGUAGCCACCA
DNA 1: CAATCTGAATTCCGGTCTCCC
DNA 2: TGGTGGCTACGACGGGATT
B26: GCGUAUA (DNA:RNA)
RNA: B25 RNA with U25G, C27G, A28U, C29A
DNA 1: CAATCTGAATTCCGGTCTCCC
DNA 2: TGGTGGCTACGACGGGATT
B27: UAUCCAC (DNA:RNA)
RNA: B18 RNA with C25U, A29C, G30A
DNA 1: CAATCTGAATTCCGGTCTCCC
DNA 2: TGGTGGCTACGACGGGATT
B28: UAUGGCA (DNA:RNA)
RNA: B1 RNA with A25U, G26A, A27U, U29G, U31A
DNA 1: CAATCTGAATTCCGGTCTCCC
DNA 2: TGGTGGCTACGACGGGATT
B29: CUGAAAA (DNA:RNA)
RNA: B18 RNA with A26U, U27G, C28A, G30A, C31A
DNA 1: CAATCTGAATTCCGGTCTCCC
DNA 2: TGGTGGCTACGACGGGATT
B30: UUACCGU (DNA:RNA)
RNA: B1 RNA with A25U, G26U, G28C, U29C, C30G
DNA 1: CAATCTGAATTCCGGTCTCCC
DNA 2: TGGTGGCTACGACGGGATT
B31: UCCGGUU (DNA:RNA)
RNA: B25 RNA with A28G, C29G, A31U
DNA 1: CAATCTGAATTCCGGTCTCCC
DNA 2: TGGTGGCTACGACGGGATT

What follows are binders tested against T1, RBFOX1 RRM (assay: EMSA; HiTS-Eq, 1 nM pool, 10 min; buffer printed only for the single-RNA assays: 10 mM Tris pH 7.5, 150 mM NaCl, 3.4 mM EDTA, 0.001% NP-40, 30 C). Conditions: tags: His6 N-terminal (pET28a); label: 5' 32P.
Method in brief: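 Purified RbFox RRM (wild type or mutant) was equilibrated for 10 min in 50 µL with 1 nM of a 5′-radiolabelled pool of RNA with 7 randomized nucleotides, its flanks annealed to DNA oligonucleotides, across increasing protein concentrations. Free RNA was separated by 8% native PAGE, excised, reverse-transcribed, PCR-barcoded and sequenced on an Illumina HiSeq 2500. Relative association constants came from read-count changes of each variant against the control reaction, normalised to the cognate motif.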
B1 was tested, and the binding signal was 0.0111 KA relative to UGCAUGU.
With B2 the binding signal was 0.0127 KA relative to UGCAUGU.
With B3 the binding signal was 0.00293 KA relative to UGCAUGU.
In the case of B4, the binding signal is reported as 0.00794 KA relative to UGCAUGU.
B5 was tested, and the binding signal was 0.0094 KA relative to UGCAUGU.
With B6 the binding signal was 0.00475 KA relative to UGCAUGU.
For B7, the binding signal was 0.000196 KA relative to UGCAUGU.
With B8 the binding signal was 0.00195 KA relative to UGCAUGU.
With B9 the binding signal was 0.35 KA relative to UGCAUGU.
B10 was tested, and the binding signal was 0.00264 KA relative to UGCAUGU.
For B11, the binding signal was 0.00248 KA relative to UGCAUGU.
For B12, the binding signal was 0.00659 KA relative to UGCAUGU.
With B13 the binding signal was 0.014 KA relative to UGCAUGU.
For B14, the binding signal was 0.00239 KA relative to UGCAUGU.
With B15 the binding signal was 0.00212 KA relative to UGCAUGU.
With B16 the binding signal was 0.00113 KA relative to UGCAUGU.
In the case of B17, the binding signal is reported as 0.00186 KA relative to UGCAUGU.
For B18, the binding signal was 0.00375 KA relative to UGCAUGU.
In the case of B19, the binding signal is reported as 0.0118 KA relative to UGCAUGU.
For B20, the binding signal was 0.0505 KA relative to UGCAUGU.
With B21 the binding signal was 0.0127 KA relative to UGCAUGU.
B22 was tested, and the binding signal was 0.0131 KA relative to UGCAUGU.
B23 was tested, and the binding signal was 0.00764 KA relative to UGCAUGU.
In the case of B24, the binding signal is reported as 0.00401 KA relative to UGCAUGU.
For B25, the binding signal was 0.00104 KA relative to UGCAUGU.
With B26 the binding signal was 0.00415 KA relative to UGCAUGU.
With B27 the binding signal was 0.00383 KA relative to UGCAUGU.
In the case of B28, the binding signal is reported as 0.0149 KA relative to UGCAUGU.
For B29, the binding signal was 0.00841 KA relative to UGCAUGU.
For B30, the binding signal was 0.00797 KA relative to UGCAUGU.
For B31, the binding signal was 0.0076 KA relative to UGCAUGU.
